The other results are listed elsewhere or left out.
B1: chr12:53210768:53210868:-|3pUTR|ENSG00000172819|msi1_unk|total|mutant (ssRNA)
RNA: GGGAGUUCUACAGUCCGACGAUCAGGGGGGAUGCUGCUCCGCUGAUCCCGCCCUGACCCAGAGGAAGCCUCUAUUUAUUUAUCCGCUUUUGUUUACACCGUGGAAUUGACCCCUUCCUCCAGGGGUCUUGGGUGGGGGAGCCCCAACAGAGGAUUGAGCAUCA
B2: chr20:34845330:34845491:-|CDS|ENSG00000131067|control|control|control (ssRNA)
RNA: GGGAGUUCUACAGUCCGACGAUCUGAGUUCACAGAGGAAGAGAUUGAGUUCCUGGAAGCCAGGGGUCACCACGUGGAGAAAGUAGAUGUCUUAUCCUGGGUCCAUGGCAGCCGAAGGACCAACAACUUCAUCAUCGCUGUUAACAACAGAGGAUUGAGCAUCA
B3: chr10:74118697:74119064:+|3pUTR|ENSG00000035403|msi1|total|mutant (ssRNA)
RNA: GGGAGUUCUACAGUCCGACGAUCGAAGAAAUCACAGAAUCAUAUGAUUCUGCUUUUACCAUGCCCCUGAGCAAUGUCUGUGCCCGGGAAACUUCCCGUCCCAUAUCCUGCCUCAGCCCGCCAAGGCCGCCAUCCCAUGAACACCAACAGAGGAUUGAGCAUCA
B4: ENSG00000140391:stop:overlap|stop_codon|ENSG00000140391|stop_codon|NA|stop_codon (ssRNA)
RNA: GGGAGUUCUACAGUCCGACGAUCUGUGCAGAAGGAGUAGAGAUCCUGCUUACGAGCUCCUCAUCACUGGCGGAACCUAUGCAUAGUUGACAACUCAAGCCUGAGCUUUUUGGUCUUGUUCUGAUUUGGAAGGUGAAUUGAGCACAACAGAGGAUUGAGCAUCA
B5: chr12:13219749:13219850:+|3pUTR|ENSG00000134531|unk|total|mutant (ssRNA)
RNA: GGGAGUUCUACAGUCCGACGAUCACAACAGUGGAUGGGGAGGAAGAACAGACUUUUGAGCUCUUCCCAAUACCGGAAUGUGUCCGUUCUAAAAAUUUUCUUAAGUUGUUUGCUUGGAACUCAGAGUAUAUUUUUCCAUACGAACAACAGAGGAUUGAGCAUCA
B6: ENSG00000136451:be:win_451|CDS|ENSG00000136451|bound_else_gene|NA|bound_elsewhere_windowed (ssRNA)
RNA: GGGAGUUCUACAGUCCGACGAUCAGUGCCAGCACCACAGCUAUGCCAGUGACCCAGUCUGUCAAGAAACCCAGUAAGCCUGUCAAGAAGAACCAUGCUUGUGAGAUGUGUGGGAAGGCCUUCCGAGAUGUGUACCAUCUCAAUCAACAGAGGAUUGAGCAUCA
B7: chr17:40866619:40867186:-|CDS|ENSG00000187242|control|control|control (ssRNA)
RNA: GGGAGUUCUACAGUCCGACGAUCUGAUAGAUUAGCUUCCUACCUGGAUAAGGUGCGAGCUCUAGAAGAGGCUAAUACUGAGCUAGAAAAUAAAAUUCGAGAAUGGUAUGAAACACGAGGAACUGGGACUGCAGAUGCUUCACACAACAGAGGAUUGAGCAUCA
B8: chr14:31448161:31448454:-|three_prime_utr|ENSG00000129480|control|control|control (ssRNA)
RNA: GGGAGUUCUACAGUCCGACGAUCUGGAAAAGAAGAAGGGUUUGAACUUUACUCUCAAUUUGUGACUCUAUGUGAAAAAGAAGUAGCUGCUAAUAGCAAGUGUGCUGAAGCUAGGGUUGUAGUGGAACAUGGCACUUAUGGGAACAACAGAGGAUUGAGCAUCA
B9: chr12:49127802:49127903:-|3pUTR|ENSG00000123416|msi1_unk|FALSE|overlapping (ssRNA)
RNA: GGGAGUUCUACAGUCCGACGAUCAUGUCAUGCUCCCAGAAUUUCAGCUUCAGCUUAACUGACAGACGUUAAAGCUUUCUGGUUAGAUUGUUUUCACUUGGUGAUCAUGUCUUUUCCAUGUGUACCUGUAAUAUUUUUCCAUCACAACAGAGGAUUGAGCAUCA
B10: chr10:91942452:91942553:+|CDS|ENSG00000095564|unk|FALSE|unique (ssRNA)
RNA: GGGAGUUCUACAGUCCGACGAUCAGUUCUAUGGAAGAUUCACCUACUACAGAGCGAUUGAAUUUUGACAGAUUUGAUAUAUGUAGAUUGUUACAACAUGGUGCAUCACUCCUGGGAUCUGCUGGUGCCGAAUUUGAAGUCCAACAACAGAGGAUUGAGCAUCA
B11: ENSG00000166402:stop:overlap|stop_codon|ENSG00000166402|stop_codon|NA|stop_codon (ssRNA)
RNA: GGGAGUUCUACAGUCCGACGAUCGUGCACUGCAGGCCUUUGCCAUUGCCCUGUCCAGCUUCGACAGCAAGCUGGCGUGCGAGUAGAGGCCUCUUCGUGCCCUUUGGGGUUGCCCAGCCUGGAGCGGAGCUUGCCUGCCUGCCUCAACAGAGGAUUGAGCAUCA
B12: ENSG00000107863:be:win_401|CDS|ENSG00000107863|bound_else_gene|NA|bound_elsewhere_windowed (ssRNA)
RNA: GGGAGUUCUACAGUCCGACGAUCGCAAAACCUAUUCCCAAGUAAUUGCUUUAAUUCAAAACAGUGAUACAACAUUGGAACUUAGUGUUAUGCCAAAAGAUGAAGACAUUCUCCAAGUGCUACAGUUUACAAAGGAUGUCACAGCAACAGAGGAUUGAGCAUCA
B13: chr14:102729990:102730091:+|3pUTR|ENSG00000089902|msi1|total|mutant (ssRNA)
RNA: GGGAGUUCUACAGUCCGACGAUCUGCGAUGCUCUUUCUGCCAGUCCCUGAAUCUCUGCAGCUUCUCUUACCUGUCUUACCUGCCGUAAAGCACAAUUGCAGUGGCGUCGCAUUCAGAAGAAGGGAAGGUCAGCAGAGGCUAUGCAACAGAGGAUUGAGCAUCA
B14: chrX:112630647:112631419:-|three_prime_utr|ENSG00000182508|control|control|control (ssRNA)
RNA: GGGAGUUCUACAGUCCGACGAUCAGAAGAUUGGAGAGGGUGGGAAAGGGGAGGAGGGAGCCCUGAAAAGAGGUACUAAGGAUUAGGCCAUUUGUCAUCUGACUGUCAUUAGCAUAGCCUAGUGUUUGCAUGCUUUUUAAACUACAACAGAGGAUUGAGCAUCA
B15: chr9:83806335:83806438:-|CDS|ENSG00000165113|unk|FALSE|unique (ssRNA)
RNA: GGGAGUUCUACAGUCCGACGAUCUGGCUCUGAUUCUGAACCUGGAAAAGGUAAAGGUCGAAAUACUGGAAAGUCUCAAACUUUAGGAAGCAAGUCAACUACAAAUGAGAAAAAAAGAGAGAAAAGAAGAAAAAAGAAGGAACACAACAGAGGAUUGAGCAUCA
B16: chr15:42211119:42211220:-|3pUTR|ENSG00000103978|unk|total|mutant (ssRNA)
RNA: GGGAGUUCUACAGUCCGACGAUCAGGUUACAUCUUGCAGAGGUUGUUUUGAGAAAAAAGGGCCCUUCUGAGUUAAGGAGCCACCGUUCUAUCAAUGAUCAAAAGAAAAAAAAAAAAAGAGAAACUGUUACAGUAUGAUUCAGACAACAGAGGAUUGAGCAUCA

target: T1, UNK ZnF1-6 (called full-length) (human, UniProt Q9C0B0 30-357); test: nsRBNS (natural sequence RNA bind-n-seq); RBNS binding buffer (assumed for nsRBNS): 25 mM Tris pH 7.5, 150 mM KCl, 3 mM MgCl2, 0.01% Triton X-100, 500 ug/ml BSA, 20 U/ml SUPERase-In, 4 C; UNK is unkempt and MSI1 is Musashi-1; names of the RNAs are library labels; protein concentration not given here; high values mean tight binding
T1 sequence: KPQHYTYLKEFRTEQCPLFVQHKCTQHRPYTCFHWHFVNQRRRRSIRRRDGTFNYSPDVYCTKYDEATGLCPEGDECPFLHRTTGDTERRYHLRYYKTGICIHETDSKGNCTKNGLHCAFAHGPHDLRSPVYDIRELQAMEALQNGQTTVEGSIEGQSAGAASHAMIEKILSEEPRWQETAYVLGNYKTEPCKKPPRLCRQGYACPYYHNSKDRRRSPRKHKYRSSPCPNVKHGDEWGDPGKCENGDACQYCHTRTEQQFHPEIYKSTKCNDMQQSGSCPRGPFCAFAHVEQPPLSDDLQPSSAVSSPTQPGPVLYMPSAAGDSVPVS

| Binder | binding signal |
| --- | --- |
| B1 | 1.11 enrichment R |
| B2 | 0.85 enrichment R |
| B3 | 0.805 enrichment R |
| B4 | 1.41 enrichment R |
| B5 | 0.58 enrichment R |
| B6 | 0.59 enrichment R |
| B7 | 0.986 enrichment R |
| B8 | 0.39 enrichment R |
| B9 | 0.751 enrichment R |
| B10 | 0.337 enrichment R |
| B11 | 0.658 enrichment R |
| B12 | 0.38 enrichment R |
| B13 | 0.539 enrichment R |
| B14 | 1.14 enrichment R |
| B15 | 1.04 enrichment R |
| B16 | 0.451 enrichment R |
